The full ranking holds about 33,000 sequences; the median of “E-score (-0.5 to 0.5)” is about -0.043, and the highest 2% start at about 0.37. Some of the results follow.
Molecular target: T1, Upc2 (UniProt Q12151)
T1 sequence: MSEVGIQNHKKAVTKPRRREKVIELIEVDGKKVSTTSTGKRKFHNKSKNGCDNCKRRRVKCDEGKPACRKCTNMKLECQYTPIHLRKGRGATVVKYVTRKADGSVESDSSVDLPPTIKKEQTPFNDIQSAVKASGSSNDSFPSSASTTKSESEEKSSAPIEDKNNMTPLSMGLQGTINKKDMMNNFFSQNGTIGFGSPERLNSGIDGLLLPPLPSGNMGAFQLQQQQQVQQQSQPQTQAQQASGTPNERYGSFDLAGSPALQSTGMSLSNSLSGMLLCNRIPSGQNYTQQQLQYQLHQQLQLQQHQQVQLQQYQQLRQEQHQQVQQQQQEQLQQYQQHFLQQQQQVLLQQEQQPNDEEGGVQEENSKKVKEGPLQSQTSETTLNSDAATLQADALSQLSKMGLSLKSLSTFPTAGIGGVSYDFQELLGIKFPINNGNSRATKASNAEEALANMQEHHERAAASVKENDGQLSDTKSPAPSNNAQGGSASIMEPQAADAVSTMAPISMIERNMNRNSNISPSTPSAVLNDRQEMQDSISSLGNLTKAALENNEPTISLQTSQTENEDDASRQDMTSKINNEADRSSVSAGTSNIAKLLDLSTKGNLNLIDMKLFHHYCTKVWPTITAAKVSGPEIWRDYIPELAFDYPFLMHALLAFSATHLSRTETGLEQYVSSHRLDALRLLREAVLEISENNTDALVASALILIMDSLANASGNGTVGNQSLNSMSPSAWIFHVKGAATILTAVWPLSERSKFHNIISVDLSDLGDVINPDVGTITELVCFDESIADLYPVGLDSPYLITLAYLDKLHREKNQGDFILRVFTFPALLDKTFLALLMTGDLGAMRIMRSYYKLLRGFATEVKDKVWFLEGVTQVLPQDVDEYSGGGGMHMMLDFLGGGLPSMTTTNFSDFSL
Assay: PBM E-score (8-mer binding enrichment) (E-score (-0.5 to 0.5)); higher = stronger / more preferred TF binding; most listed sequences are background and not binding sites
Settings: protein concentration: 200 nM; construct: GST-full length
Procedure: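 Universal 'all 10-mer' protein binding microarrays (Agilent AMADID 015681) probed with GST-tagged S. cerevisiae TFs (full-length or DBD) made by in vitro transcription/translation (PURExpress), about 100-200 nM. Bound TF was detected with fluorescent anti-GST. Each ungapped 8-mer (which stands for itself and its reverse complement) is scored by the PBM enrichment score (E-score), a modified Wilcoxon-Mann-Whitney statistic from -0.5 to +0.5, computed with the Universal PBM Analysis Suite. Scale: above 0.35 generally sequence-specific binding.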

Row | Sequence | PBM E-score
1 | GCGGAACC | -0.0453
2 | ACGCTACA | 0.0651
3 | TCACAGGA | -0.175
4 | CCATCTTC | -0.0895
5 | TACATATA | 0.109
6 | AGACTAGA | -0.0378
7 | TGTTGTAA | 0.0709
8 | GTTTGTTA | 0.188
9 | AAACTGCG | -0.0684
10 | ATGCGCGG | -0.0498
11 | ATTGATCG | 0.0802
12 | ATGGCAGA | 0.0488
13 | ATGATGCG | -0.0322
14 | CCGCGCCG | 0.0343
15 | CCCGAGTC | -0.0115
16 | CAACGTGA | -0.211
17 | CACACCAC | -0.00598
18 | AATCCTTC | 0.0236
19 | TACGTTCA | 0.247
20 | AGACAGAG | -0.0792
21 | ATGCAGCC | -0.135
22 | CGGAATGA | -0.178

Row | Sequence | PBM E-score
23 | AAGCGAGG | 0.296
24 | CGACACAC | 0.201
25 | CAAAACCG | 0.0509
26 | GATCGAGA | 0.117
27 | GGACTCGA | -0.149
28 | TACCACGA | 0.0124
29 | CGAAGCTC | -0.129
30 | ATACGGTC | 0.418
31 | ATTGCGCA | -0.0745
32 | ATTGGTTC | 0.0237
33 | GACCGCTA | 0.039
34 | TAACATAA | 0.113
35 | CCTTCATC | -0.148
36 | GGTATAAA | 0.217
37 | GAATGCTA | -0.00971
38 | GGCTTCTA | -0.117
39 | ACACCACC | -0.179
40 | GCCATTCC | -0.326
41 | ATTCTGTG | -0.0539
42 | GATATATA | 0.075
43 | CGCTATGC | -0.0206
44 | TGCTCTAA | -0.0995

Row | Sequence | PBM E-score
45 | AGGCGCAG | -0.3
46 | CGGCAACC | -0.0857
47 | AGGGAAAT | -0.188
48 | ACTACTTC | -0.149
49 | CAGTCTAC | -0.11
50 | GAGTGATA | 0.16
51 | AACGCCAA | 0.198
52 | ATGGCCGG | -0.301
53 | CCCGCTCA | 0.0129
54 | AGAAGGAG | -0.238
55 | AGGATTGA | -0.212
56 | CTGGGCGC | -0.222
57 | ACCCAATC | -0.0848
58 | AGAACCAA | -0.00064
59 | GACTGGCA | -0.298
60 | AGCAATCG | 0.188
61 | CAATTGGG | -0.145
62 | CCTTCGCG | 0.00088
63 | CGCATGGA | -0.148
64 | CATTATGG | -0.175
65 | ATCTTGTC | -0.154
66 | CTCTCTGA | -0.242

Row | Sequence | PBM E-score
67 | CTAACCGA | 0.37
68 | CATTGTTA | 0.00463
69 | AGTGTGGC | -0.131
70 | ATGTGGCC | -0.247
71 | CATTCCAG | -0.289
72 | GGAACCCA | -0.0878
73 | GGCCTGGA | -0.419
74 | CACAAGTC | -0.17
75 | CCGTCCCA | -0.0922
76 | ATGATAAT | -0.145
77 | ATGCTCGA | -0.134
78 | GATGGGTA | 0.108
79 | AAAGTGGC | -0.0761
80 | GCTCATAA | -0.0368
81 | ATCAGGTC | 0.0789
82 | AATAATCG | 0.0287
83 | AGTGTCCC | -0.0702
84 | ACGGATAC | 0.27
85 | CTTTGACA | -0.164
86 | CACCAGCC | -0.119

Source: the supplement of paper PMC3334620
